# This is one part of the list.
# B1: Epa10 (protein)
# chain: MNEKIFRYLTLLFLFELARSLPVEDKLNIKKVFEKRAVDFTPFAHYPRPEGCSSPPNSVSVGLHMNLYNYPYLYVKPSTKGMFTNDTNSDADGETDGDSAGGIEGRAGQCWNPEYQDPNFPRFGYKQYGEFGASDNVNGDISWDHNEFTEGCKPVLAALPPGYNYPDEITFSNFTMVLSGYFKPKTSGVYKFELKADDFILFNFGAKNAFECCNREESIDNFGPYVAYAMWPNQADQELEVYLFEDSYYPLRLFYNNRDYHSKFKIGFYPPGQTTITFDFDGYLFMLDDTGNECRDSIRYRTVCDDKVVDDTTYSTRYSTSMVPGGGSDVITIYYIRMKCEEEDCLGQWDPINNVCYSPDDCADDGGYWNGQMCDQSCKLEGGIVNPDTGDCDKSCIESGGFLDENGNCDTTCRDDGGMLVEGQCDYQCKEAGGILVGDHCDTTCVDSGGKLNEDGTCDHSCRDQGGQLDENGECDTSCKDSGGMLIEGECDTSCKDEGGQLDDNNECINHCKDQGGIIDENGNCDTSCKDSGGKLDESGACDTSCRDDGGIIDENGNCNTTCRDDGGIIVGDHCDTSCRDAGGILIEDHCDTTCRDSGGKLNEDGTCDHSCRDQGGQLDENGKCDYSCKNGGGKLDEDGNCDMSCKENGGKLDENGDCDLSCKEDGGKLDGNGDCDYSCKEEGGVIDESGNCNTTCKDSGGQIIDGECNYGCIEVGGVVIDGECDTSCIDSGGILDGDGNCDRSCIESGGVLEDGACNTTCRDSGGQLNVDGTCDTSCRDDGGMLVEGQCDYQCKEAGGILEDGECVFPPTSSSTSETSSTTDQSSLQSDDSSMESSSTPMDSSTIESSSSEIITSESESESVPIASSSSEVMTSESESESIPILTSSSEIPIASSSSEIPVASSSSEIIIPESESESVPVASSSSEIPIASSSSEIPVASSSSEIPVASSSSEIIIPESESESIPIESTSSEAVSSRSESDSSYPTPTPTTTTITTWPNPIQPTTSNSSPIVSSSTETPGIAESSSRISDLESSRRTSILGDDRTRTRTTITSTITEDGQIITITTTVTGFVPEPTGETEGNGSDDENPENPIENNTDENEFLDPEFTDDIPDDPAGPEDNGNGPVNPEQGNDNDPVNLEDSGNNGAVNPEQAPVNDEDNGGNDPVNPEQDNNNGPANPGQDSTNGSGNSDQIDNNPPTPEENAGDGNSNGNDPADPSRRTSILGDERTRASPGGTSQPTGANGNVNGNSPGANVNGGGTGNSNNNNNNNNNNNNGNAPNGGDGSNGDANQGPSRRTSLLGDERTRAGQAAPTGGSSPDNGIAGDTSNNGGAIVSQQVDDGGAGSPRRTSILGDVRSRTTLNGEVLNFEGSGVRRAVAGNLALPLMMVGLVFNL
# Experiments:
# Assay in all cases: glycan array binding signal (z-score within array); higher = stronger binding
# Details in all cases: glycan notation: IUPAC condensed, linker removed
# Fuc(a1-2)Gal = biological target: Fuc(a1-2)Gal
# Procedure, shortened: (§1)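 Columns mapping to the same glycan were averaged after glycan names were converted to IUPAC-condensed notation. The data come from 3228 arrays in the Consortium for Functional Glycomics database, limited to those with an available protein sequence. Binding is reported as a within-array Z-score averaged across arrays of one protein sequence and across linkers.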
# Fuc(a1-2)Gal(b1-3)GalNAc = biological target: Fuc(a1-2)Gal(b1-3)GalNAc
# Procedure, shortened: as §1
# [1] = biological target: Fuc(a1-2)Gal(b1-3)GalNAc(a1-3)[Fuc(a1-2)]Gal(b1-4)Glc
# Procedure, shortened: as §1
# [2] = biological target: Fuc(a1-2)Gal(b1-3)GalNAc(a1-3)[Fuc(a1-2)]Gal(b1-4)GlcNAc
# Procedure, shortened: as §1
# [3] = biological target: Fuc(a1-2)Gal(b1-3)GalNAc(b1-3)Gal
# Procedure, shortened: as §1
# [4] = biological target: Fuc(a1-2)Gal(b1-3)GalNAc(b1-3)Gal(a1-4)Gal(b1-4)Glc
# Procedure, shortened: as §1
# [5] = biological target: Fuc(a1-2)Gal(b1-3)GalNAc(b1-4)[Neu5Ac(a2-3)]Gal(b1-4)Glc
# Procedure, shortened: as §1
# Fuc(a1-2)Gal(b1-3)GlcNAc = biological target: Fuc(a1-2)Gal(b1-3)GlcNAc
# Procedure, shortened: as §1
# [6] = biological target: Fuc(a1-2)Gal(b1-3)GlcNAc(b1-2)Man(a1-3)[Fuc(a1-2)Gal(b1-3)GlcNAc(b1-2)Man(a1-6)]Man(b1-4)GlcNAc(b1-4)GlcNAc
# Procedure, shortened: as §1
# [7] = biological target: Fuc(a1-2)Gal(b1-3)GlcNAc(b1-2)Man(a1-3)[Fuc(a1-2)Gal(b1-3)GlcNAc(b1-2)Man(a1-6)]Man(b1-4)GlcNAc(b1-4)[Fuc(a1-6)]GlcNAc
# Procedure, shortened: as §1
# [8] = biological target: Fuc(a1-2)Gal(b1-3)GlcNAc(b1-3)Gal(b1-4)Glc
# Procedure, shortened: as §1
# [9] = biological target: Fuc(a1-2)Gal(b1-3)GlcNAc(b1-3)GalNAc
# Procedure, shortened: as §1
# [10] = biological target: Fuc(a1-2)Gal(b1-3)GlcNAc(b1-3)[Fuc(a1-2)Gal(b1-3)GlcNAc(b1-6)]GalNAc
# Procedure, shortened: as §1
# [11] = biological target: Fuc(a1-2)Gal(b1-3)GlcNAc(b1-3)[Gal(b1-4)GlcNAc(b1-6)]Gal(b1-4)Glc
# Procedure, shortened: as §1
# [12] = biological target: Fuc(a1-2)Gal(b1-3)GlcNAc(b1-3)[Neu5Ac(a2-6)Gal(b1-4)GlcNAc(b1-6)]Gal(b1-4)Glc
# Procedure, shortened: as §1
# [13] = biological target: Fuc(a1-2)Gal(b1-3)GlcNAc6S
# Procedure, shortened: as §1
# [14] = biological target: Fuc(a1-2)Gal(b1-3)[Fuc(a1-4)]GlcNAc
# Procedure, shortened: as §1
# [15] = biological target: Fuc(a1-2)Gal(b1-3)[Fuc(a1-4)]GlcNAc(b1-2)Man(a1-3)[Fuc(a1-2)Gal(b1-3)[Fuc(a1-4)]GlcNAc(b1-2)Man(a1-3)]Man(b1-4)GlcNAc(b1-4)GlcNAc
# Procedure, shortened: as §1
# [16] = biological target: Fuc(a1-2)Gal(b1-3)[Fuc(a1-4)]GlcNAc(b1-2)Man(a1-3)[Fuc(a1-2)Gal(b1-3)[Fuc(a1-4)]GlcNAc(b1-2)Man(a1-6)]Man(b1-4)GlcNAc(b1-4)[Fuc(a1-6)]GlcNAc(b1-4)[Fuc(a1-6)]GlcNAc
# Procedure, shortened: as §1
# [17] = biological target: Fuc(a1-2)Gal(b1-3)[Fuc(a1-4)]GlcNAc(b1-3)[Fuc(a1-3)[Gal(b1-4)]GlcNAc(b1-6)]Gal(b1-4)Glc
# Procedure, shortened: as §1
# [18] = biological target: Fuc(a1-2)Gal(b1-3)[Fuc(a1-4)]GlcNAc(b1-3)[Gal(b1-4)GlcNAc(b1-6)]Gal(b1-4)Glc
# Procedure, shortened: as §1
# Fuc(a1-2)Gal(b1-4)Glc = biological target: Fuc(a1-2)Gal(b1-4)Glc
# Procedure, shortened: as §1
# Fuc(a1-2)Gal(b1-4)Glc6S = biological target: Fuc(a1-2)Gal(b1-4)Glc6S
# Procedure, shortened: as §1
# Fuc(a1-2)Gal(b1-4)GlcNAc = biological target: Fuc(a1-2)Gal(b1-4)GlcNAc
# Procedure, shortened: as §1
# [19] = biological target: Fuc(a1-2)Gal(b1-4)GlcNAc(b1-2)Man
# Procedure, shortened: as §1
# [20] = biological target: Fuc(a1-2)Gal(b1-4)GlcNAc(b1-2)Man(a1-3)[Fuc(a1-2)Gal(b1-4)GlcNAc(b1-2)Man(a1-6)]Man(b1-4)GlcNAc(b1-4)GlcNAc
# Procedure, shortened: as §1
# [21] = biological target: Fuc(a1-2)Gal(b1-4)GlcNAc(b1-2)Man(a1-3)[Fuc(a1-2)Gal(b1-4)GlcNAc(b1-2)Man(a1-6)]Man(b1-4)GlcNAc(b1-4)[Fuc(a1-6)]GlcNAc
# Procedure, shortened: as §1
# [22] = biological target: Fuc(a1-2)Gal(b1-4)GlcNAc(b1-2)[Fuc(a1-2)Gal(b1-4)GlcNAc(b1-4)]Man(a1-3)[Fuc(a1-2)Gal(b1-4)GlcNAc(b1-2)Man(a1-6)]Man(b1-4)GlcNAc(b1-4)GlcNAc
# Procedure, shortened: as §1
# [23] = biological target: Fuc(a1-2)Gal(b1-4)GlcNAc(b1-3)Gal(b1-4)GlcNAc
# Procedure, shortened: as §1
# [24] = biological target: Fuc(a1-2)Gal(b1-4)GlcNAc(b1-3)Gal(b1-4)GlcNAc(b1-2)Man(a1-3)[Fuc(a1-2)Gal(b1-4)GlcNAc(b1-3)Gal(b1-4)GlcNAc(b1-2)Man(a1-6)]Man(b1-4)GlcNAc(b1-4)GlcNAc
# Procedure, shortened: as §1
binder,measurement,setting,value
B1,glycan array binding signal (z-score),Fuc(a1-2)Gal,-0.289
same,glycan array binding signal (z-score),Fuc(a1-2)Gal(b1-3)GalNAc,-0.217
same,glycan array binding signal (z-score),[1],-0.258
same,glycan array binding signal (z-score),[2],-0.146
same,glycan array binding signal (z-score),[3],-0.197
same,glycan array binding signal (z-score),[4],-0.249
same,glycan array binding signal (z-score),[5],-0.009
same,glycan array binding signal (z-score),Fuc(a1-2)Gal(b1-3)GlcNAc,-0.264
same,glycan array binding signal (z-score),[6],-0.017
same,glycan array binding signal (z-score),[7],-0.257
same,glycan array binding signal (z-score),[8],-0.271
same,glycan array binding signal (z-score),[9],-0.211
same,glycan array binding signal (z-score),[10],-0.174
same,glycan array binding signal (z-score),[11],-0.226
same,glycan array binding signal (z-score),[12],-0.195
same,glycan array binding signal (z-score),[13],-0.163
same,glycan array binding signal (z-score),[14],-0.222
same,glycan array binding signal (z-score),[15],-0.135
same,glycan array binding signal (z-score),[16],-0.125
same,glycan array binding signal (z-score),[17],-0.275
same,glycan array binding signal (z-score),[18],-0.215
same,glycan array binding signal (z-score),Fuc(a1-2)Gal(b1-4)Glc,-0.164
same,glycan array binding signal (z-score),Fuc(a1-2)Gal(b1-4)Glc6S,-0.148
same,glycan array binding signal (z-score),Fuc(a1-2)Gal(b1-4)GlcNAc,-0.239
same,glycan array binding signal (z-score),[19],-0.188
same,glycan array binding signal (z-score),[20],0
same,glycan array binding signal (z-score),[21],0.036
same,glycan array binding signal (z-score),[22],-0.245
same,glycan array binding signal (z-score),[23],-0.202
same,glycan array binding signal (z-score),[24],-0.132

# From the supplement of paper PMC8728848
